Laboratory results: paper PMC10518494
No constants are given. Whether binding was seen depends on the method and setting. In cells and extracts the contact can be indirect. Some binding calls cover weakened binding; strength is not graded here. For part of these data: Tags and fused reporters may be left off the sequences shown.

Key:
[1] = target: T1, tumor necrosis factor receptor-associated factor 6 (endogenous, mouse aortic endothelial cells) (mouse (endogenous in primary aortic ECs)) (UniProt P70196); assay: co-IP; IP with TRAF6 antibody from lysates of aortic ECs isolated from WT and Apoe KO mice, blot for Rnd3; 500 ug lysate protein, 5 ug IP antibody, 12 h at 4°C, Protein A/G magnetic beads
T1 sequence: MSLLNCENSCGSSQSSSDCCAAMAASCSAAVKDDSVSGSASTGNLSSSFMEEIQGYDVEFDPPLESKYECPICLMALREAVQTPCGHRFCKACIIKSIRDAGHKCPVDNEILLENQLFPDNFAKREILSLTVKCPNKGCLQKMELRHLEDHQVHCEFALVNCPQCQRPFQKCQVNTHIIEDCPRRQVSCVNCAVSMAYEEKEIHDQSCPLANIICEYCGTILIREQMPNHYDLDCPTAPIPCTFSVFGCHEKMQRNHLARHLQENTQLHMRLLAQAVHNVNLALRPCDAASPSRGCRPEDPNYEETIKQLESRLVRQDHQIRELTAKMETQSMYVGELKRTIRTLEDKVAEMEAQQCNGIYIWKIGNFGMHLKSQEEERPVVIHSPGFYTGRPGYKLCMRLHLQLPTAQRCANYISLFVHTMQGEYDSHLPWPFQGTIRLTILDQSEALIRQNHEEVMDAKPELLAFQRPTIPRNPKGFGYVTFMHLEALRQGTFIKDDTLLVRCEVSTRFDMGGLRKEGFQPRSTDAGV

[2] = target: T2, Flag-Rnd3 (UniProt P61588); assay: co-IP; lysates of primary aortic ECs transfected with tagged Rnd3 and tagged TRAF6 constructs; IP with anti-Flag or anti-Myc antibody, immunoblot for the tags; 500 ug lysate protein, 5 ug IP antibody, 12 h at 4°C, Protein A/G magnetic beads
T2 sequence: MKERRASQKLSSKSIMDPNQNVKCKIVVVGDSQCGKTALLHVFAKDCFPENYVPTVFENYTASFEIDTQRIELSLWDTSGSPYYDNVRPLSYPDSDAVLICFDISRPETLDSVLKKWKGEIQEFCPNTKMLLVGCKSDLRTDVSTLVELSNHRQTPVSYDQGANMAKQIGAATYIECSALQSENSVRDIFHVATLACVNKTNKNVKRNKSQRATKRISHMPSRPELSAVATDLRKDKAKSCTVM

[3] = target: T3, Myc-TRAF6 truncation mutant (110-522) (UniProt Q9Y4K3); assay: as above
T3 sequence: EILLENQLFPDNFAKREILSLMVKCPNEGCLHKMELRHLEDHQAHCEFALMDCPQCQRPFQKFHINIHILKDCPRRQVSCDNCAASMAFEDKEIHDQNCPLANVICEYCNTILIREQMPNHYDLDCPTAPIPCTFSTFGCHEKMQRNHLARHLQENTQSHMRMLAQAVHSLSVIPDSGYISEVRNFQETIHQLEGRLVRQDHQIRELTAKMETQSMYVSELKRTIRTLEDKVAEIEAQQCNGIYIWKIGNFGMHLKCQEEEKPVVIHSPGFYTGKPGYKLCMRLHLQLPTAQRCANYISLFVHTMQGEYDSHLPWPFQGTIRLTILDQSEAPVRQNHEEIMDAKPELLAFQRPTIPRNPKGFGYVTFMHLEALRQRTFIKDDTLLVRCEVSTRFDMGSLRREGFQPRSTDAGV

[4] = target: T4, Myc-TRAF6 truncation mutant (260-522) (UniProt Q9Y4K3); assay: as above
T4 sequence: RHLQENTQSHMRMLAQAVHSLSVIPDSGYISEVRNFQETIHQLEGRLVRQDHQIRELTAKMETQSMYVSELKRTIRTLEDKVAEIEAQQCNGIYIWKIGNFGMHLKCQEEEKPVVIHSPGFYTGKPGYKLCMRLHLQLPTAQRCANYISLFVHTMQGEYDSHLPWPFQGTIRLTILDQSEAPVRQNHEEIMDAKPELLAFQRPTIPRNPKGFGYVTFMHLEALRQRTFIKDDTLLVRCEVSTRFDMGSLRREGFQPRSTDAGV

[5] = target: T5, Myc-TRAF6 truncation mutant (349-522) (UniProt Q9Y4K3); assay: as above
T5 sequence: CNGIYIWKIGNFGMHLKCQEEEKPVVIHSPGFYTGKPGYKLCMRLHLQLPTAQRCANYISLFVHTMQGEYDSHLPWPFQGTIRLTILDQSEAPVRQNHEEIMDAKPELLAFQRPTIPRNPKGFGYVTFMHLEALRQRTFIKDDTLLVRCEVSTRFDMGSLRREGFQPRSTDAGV

B1: Rnd3 (endogenous, mouse aortic endothelial cells) (protein, UniProt P61588 1-244)
chain: MKERRASQKLSSKSIMDPNQNVKCKIVVVGDSQCGKTALLHVFAKDCFPENYVPTVFENYTASFEIDTQRIELSLWDTSGSPYYDNVRPLSYPDSDAVLICFDISRPETLDSVLKKWKGEIQEFCPNTKMLLVGCKSDLRTDVSTLVELSNHRQTPVSYDQGANMAKQIGAATYIECSALQSENSVRDIFHVATLACVNKTNKNVKRNKSQRATKRISHMPSRPELSAVATDLRKDKAKSCTVM
With B1 the binding [1] was “binds”.

B2: Myc-TRAF6 (1-110) (domain or fragment, UniProt Q9Y4K3 1-110)
chain: MSLLNCENSCGSSQSESDCCVAMASSCSAVTKDDSVGGTASTGNLSSSFMEEIQGYDVEFDPPLESKYECPICLMALREAVQTPCGHRFCKACIIKSIRDAGHKCPVDNE
In the case of B2, the binding [2] is reported as “binds”.

B3: Flag-Rnd3 (protein, UniProt P61588 1-244)
chain: MKERRASQKLSSKSIMDPNQNVKCKIVVVGDSQCGKTALLHVFAKDCFPENYVPTVFENYTASFEIDTQRIELSLWDTSGSPYYDNVRPLSYPDSDAVLICFDISRPETLDSVLKKWKGEIQEFCPNTKMLLVGCKSDLRTDVSTLVELSNHRQTPVSYDQGANMAKQIGAATYIECSALQSENSVRDIFHVATLACVNKTNKNVKRNKSQRATKRISHMPSRPELSAVATDLRKDKAKSCTVM
For B3, the binding [3] was “no binding”, the binding [4] was “no binding” and the binding [5] was “no binding”.

B4: Ha-TRAF6 65-88 amino acid deletion mutant (protein, UniProt Q9Y4K3)
chain: MSLLNCENSCGSSQSESDCCVAMASSCSAVTKDDSVGGTASTGNLSSSFMEEIQGYDVEFDPPLFCKACIIKSIRDAGHKCPVDNEILLENQLFPDNFAKREILSLMVKCPNEGCLHKMELRHLEDHQAHCEFALMDCPQCQRPFQKFHINIHILKDCPRRQVSCDNCAASMAFEDKEIHDQNCPLANVICEYCNTILIREQMPNHYDLDCPTAPIPCTFSTFGCHEKMQRNHLARHLQENTQSHMRMLAQAVHSLSVIPDSGYISEVRNFQETIHQLEGRLVRQDHQIRELTAKMETQSMYVSELKRTIRTLEDKVAEIEAQQCNGIYIWKIGNFGMHLKCQEEEKPVVIHSPGFYTGKPGYKLCMRLHLQLPTAQRCANYISLFVHTMQGEYDSHLPWPFQGTIRLTILDQSEAPVRQNHEEIMDAKPELLAFQRPTIPRNPKGFGYVTFMHLEALRQRTFIKDDTLLVRCEVSTRFDMGSLRREGFQPRSTDAGV
B4 was tested, and the binding [2] was “no binding”.
